Assay results reported in PMC9350387, “Synthetic α‐Helical Peptides as Potential Inhibitors of the ACE2 SARS‐CoV‐2 Interaction” (Chembiochem, 2022).
Non-standard residues stand in square brackets, D forms with d. Residues, ends and D or L forms follow the SMILES beside them. β3hD = NC(CC(=O)O)CC(=O)O

Biological target: receptor binding domain (RBD) of Spike from wildtype SARS‐CoV‐2 (2019‐nCoV) (Severe acute respiratory syndrome coronavirus 2, UniProt P0DTC2)
Assay: biochemical
Conditions: dash = signal-to-noise below threshold for a binding event, read-out: KD, dissociation constant on SARS‐CoV‐2 spike‐RBD

Structure (SMILES) | Kd
CC(=O)N[C@@H](CC(=O)O)CC(=O)N1CCC[C@H]1C(=O)N1CCC[C@H]1C(=O)N[C@@H](CCC(=O)O)C(=O)N[C@@H](CCC(N)=O)C(=O)N[C@@H](C)C(=O)N[C@@H](CCCCN)C(=O)N[C@H](C(=O)N[C@@H](Cc1ccccc1)C(=O)N[C@@H](CC(C)C)C(=O)N[C@@H](CC(=O)O)C(=O)N[C@@H](CCCCN)C(=O)N[C@@H](Cc1ccccc1)C(=O)N[C@@H](CC(N)=O)C(=O)N[C@@H](Cc1c[nH]cn1)C(=O)N[C@@H](CCC(=O)O)C(=O)N[C@@H](C)C(=O)N[C@@H](CCC(=O)O)C(=O)N[C@@H](CC(=O)O)C(=O)N[C@@H](CC(C)C)C(=O)N[C@@H](Cc1ccccc1)C(=O)N[C@@H](Cc1ccc(O)cc1)C(=O)N[C@@H](CCC(N)=O)C(=O)N[C@@H](CCCCN)C(N)=O)[C@@H](C)O [P‐2‐2] (Ac-[β3hD]PPEQAKTFLDKFNHEAEDLFYQK-NH2) | 62 ± 17 nM
CC(=O)N[C@@H](CC(=O)O)CC(=O)N1C[C@H]2/C=C\[C@@H]3CC[C@@H](C(=O)N[C@@H](CCC(=O)O)C(=O)N[C@@H](CCC(N)=O)C(=O)N[C@@H](C)C(=O)N[C@@H](CCCCN)C(=O)N[C@H](C(=O)N[C@@H](Cc4ccccc4)C(=O)N[C@@H](CC(C)C)C(=O)N[C@@H](CC(=O)O)C(=O)N[C@@H](CCCCN)C(=O)N[C@@H](Cc4ccccc4)C(=O)N[C@@H](CC(N)=O)C(=O)N[C@@H](Cc4c[nH]cn4)C(=O)N[C@@H](CCC(=O)O)C(=O)N[C@@H](C)C(=O)N[C@@H](CCC(=O)O)C(=O)N[C@@H](CC(=O)O)C(=O)N[C@@H](CC(C)C)C(=O)N[C@@H](Cc4ccccc4)C(=O)N[C@@H](Cc4ccc(O)cc4)C(=O)N[C@@H](CCC(N)=O)C(=O)N[C@@H](CCCCN)C(N)=O)[C@@H](C)O)N3C(=O)[C@@H]1C2 [P‐2‐1] | 1210 ± 360 nM
